# Laboratory results taken from the supplement of paper PMC8728848.
# The other results are listed elsewhere or left out.
# Key:
# Assay in all cases: glycan array binding signal (z-score within array); higher = stronger binding
# Details in all cases: glycan notation: IUPAC condensed, linker removed
# [1] = target: Gal(b1-3)GlcNAc(b1-2)Man(a1-3)[Gal(b1-3)GlcNAc(b1-2)Man(a1-6)]Man(b1-4)GlcNAc(b1-4)GlcNAc
# Summary of the method: (§1)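 Arrays were curated from the Consortium for Functional Glycomics database, 3228 in total, and kept only where the protein sequence was available. Binding is expressed as a within-array Z-score. This score was averaged across arrays of the same protein sequence at different concentrations or buffers and across linkers, and negative values can be read as non-binding.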
# [2] = target: Gal(b1-3)GlcNAc(b1-2)Man(a1-3)[Gal(b1-3)GlcNAc(b1-2)Man(a1-6)]Man(b1-4)GlcNAc(b1-4)[Fuc(a1-6)]GlcNAc
# Summary of the method: as §1
# [3] = target: Gal(b1-3)GlcNAc(b1-2)Man(a1-3)[GlcNAc(b1-4)][Gal(b1-3)GlcNAc(b1-2)Man(a1-6)]Man(b1-4)GlcNAc(b1-4)GlcNAc
# Summary of the method: as §1
# [4] = target: Gal(b1-3)GlcNAc(b1-2)[Gal(b1-3)GlcNAc(b1-6)]Man(a1-6)[Gal(b1-3)GlcNAc(b1-2)Man(a1-3)]Man(b1-4)GlcNAc(b1-4)GlcNAc
# Summary of the method: as §1
# [5] = target: Gal(b1-3)GlcNAc(b1-3)Gal(b1-3)GlcNAc
# Summary of the method: as §1
# [6] = target: Gal(b1-3)GlcNAc(b1-3)Gal(b1-4)Glc
# Summary of the method: as §1
# [7] = target: Gal(b1-3)GlcNAc(b1-3)Gal(b1-4)GlcNAc
# Summary of the method: as §1
# [8] = target: Gal(b1-3)GlcNAc(b1-3)Gal(b1-4)GlcNAc(b1-2)Man(a1-3)[Gal(b1-3)GlcNAc(b1-3)Gal(b1-4)GlcNAc(b1-2)Man(a1-6)]Man(b1-4)GlcNAc(b1-4)GlcNAc
# Summary of the method: as §1
# [9] = target: Gal(b1-3)GlcNAc(b1-3)Gal(b1-4)GlcNAc(b1-2)[Gal(b1-3)GlcNAc(b1-3)Gal(b1-4)GlcNAc(b1-6)]Man(a1-6)[Gal(b1-3)GlcNAc(b1-3)Gal(b1-4)GlcNAc(b1-2)Man(a1-3)]Man(b1-4)GlcNAc(b1-4)[Fuc(a1-6)]GlcNAc
# Summary of the method: as §1
# [10] = target: Gal(b1-3)GlcNAc(b1-3)Gal(b1-4)GlcNAc(b1-3)Gal(b1-4)GlcNAc(b1-2)[Gal(b1-3)GlcNAc(b1-3)Gal(b1-4)GlcNAc(b1-3)Gal(b1-4)GlcNAc(b1-6)]Man(a1-6)[Gal(b1-3)GlcNAc(b1-3)Gal(b1-4)GlcNAc(b1-3)Gal(b1-4)GlcNAc(b1-2)Man(a1-3)]Man(b1-4)GlcNAc(b1-4)[Fuc(a1-6)]GlcNAc
# Summary of the method: as §1
# [11] = target: Gal(b1-3)GlcNAc(b1-3)Gal(b1-4)GlcNAc(b1-6)[Gal(b1-3)GlcNAc(b1-3)]Gal(b1-4)Glc
# Summary of the method: as §1
# [12] = target: Gal(b1-3)GlcNAc(b1-3)Gal(b1-4)[Fuc(a1-3)]GlcNAc
# Summary of the method: as §1
# [13] = target: Gal(b1-3)GlcNAc(b1-3)Gal(b1-4)[Fuc(a1-3)]GlcNAc(b1-6)[Gal(b1-3)GlcNAc(b1-3)]Gal(b1-4)Glc
# Summary of the method: as §1
# [14] = target: Gal(b1-3)GlcNAc(b1-3)GalNAc
# Summary of the method: as §1
# [15] = target: Gal(b1-3)GlcNAc(b1-6)Gal(b1-4)GlcNAc
# Summary of the method: as §1
# [16] = target: Gal(b1-3)GlcNAc(b1-6)GalNAc
# Summary of the method: as §1
# [17] = target: Gal(b1-3)GlcNAc(b1-6)[Gal(b1-3)]GalNAc
# Summary of the method: as §1
# Gal(b1-3)GlcNAc6S = target: Gal(b1-3)GlcNAc6S
# Summary of the method: as §1
# [18] = target: Gal(b1-3)[Fuc(a1-4)]GlcNAc
# Summary of the method: as §1
# [19] = target: Gal(b1-3)[Fuc(a1-4)]GlcNAc(b1-2)Man
# Summary of the method: as §1
# [20] = target: Gal(b1-3)[Fuc(a1-4)]GlcNAc(b1-2)Man(a1-3)[Gal(b1-3)[Fuc(a1-4)]GlcNAc(b1-2)Man(a1-6)]Man(b1-4)GlcNAc(b1-4)[Fuc(a1-6)]GlcNAc
# Summary of the method: as §1
# [21] = target: Gal(b1-3)[Fuc(a1-4)]GlcNAc(b1-3)Gal(b1-3)[Fuc(a1-4)]GlcNAc
# Summary of the method: as §1
# [22] = target: Gal(b1-3)[Fuc(a1-4)]GlcNAc(b1-3)Gal(b1-4)[Fuc(a1-3)]GlcNAc
# Summary of the method: as §1
# [23] = target: Gal(b1-3)[Fuc(a1-4)]GlcNAc(b1-6)GalNAc
# Summary of the method: as §1
# [24] = target: Gal(b1-3)[GlcNAc(b1-6)]GalNAc
# Summary of the method: as §1
# [25] = target: Gal(b1-3)[Neu5Ac(a2-6)]GalNAc
# Summary of the method: as §1
# [26] = target: Gal(b1-3)[Neu5Ac(a2-6)]GlcNAc(b1-4)Gal(b1-4)Glc
# Summary of the method: as §1
# [27] = target: Gal(b1-3)[Neu5Ac(b2-6)]GalNAc
# Summary of the method: as §1
# Gal(b1-4)Gal = target: Gal(b1-4)Gal
# Summary of the method: as §1
# [28] = target: Gal(b1-4)GalNAc(a1-3)[Fuc(a1-2)]Gal(b1-4)GlcNAc
# Summary of the method: as §1
binder,measurement,setting,value
CvGal2 (Crassostrea virginica) (protein) MGSSHHHHHHSSGLVPRGSHMRIREAGKRKDTTKVYQIPDGLFPGQQVMLRGRVPWGSKSFSINFSATPRMGEGDILFHLNPRPSEGVCIRNALLNGSWGAEEKWQPYFPFDDGRSFSVKIEVTNDAFRTFVNGRPFVDFLHRTDFRAGKYLTLREGAEYYDVIFQSKPNIPLTTAIHNGMRIGKTIRIRGMCTAQDGFAINFNDNRNNIYFHFNARPAQRTVVRNSYFGSWGNEETAISKEFPFYPFLYFYASFVCMEDKFAVYVNDEHFIDFAHRGNPNNISVLQIKGSVNVLDTECLEPMGEDAMTEVDSGLENGDLFVLNGLMTERGKTFAVNFLNGFTENDDIALHFNPRKSTGEVVLNSRYGGAWQSEEKVALPGVFWSNRPLQVKVETKRNKFKIYVNGVDLAKYKIRGNVEDVHAVQVKGDVFLLETLLLKRLMKPVWERLTGGIRPGTWVTLQGTPKKNWQQFVVNFALDDTLDGDIAFHFNVRRGARQVVRNHRQSGAWGREETVTPFFAFDSEATFEIVFFVKEEKFLIYFNGKLFFEFVHRVPVERITHIYMDGDCNFYEPEVVI,glycan array binding signal (z-score),[1],0.832
same,glycan array binding signal (z-score),[2],-0.164
same,glycan array binding signal (z-score),[3],0.451
same,glycan array binding signal (z-score),[4],1.74
same,glycan array binding signal (z-score),[5],0.769
same,glycan array binding signal (z-score),[6],1.17
same,glycan array binding signal (z-score),[7],0.004
same,glycan array binding signal (z-score),[8],0.49
same,glycan array binding signal (z-score),[9],1.48
same,glycan array binding signal (z-score),[10],2.77
same,glycan array binding signal (z-score),[11],4.4
same,glycan array binding signal (z-score),[12],0.146
same,glycan array binding signal (z-score),[13],1.32
same,glycan array binding signal (z-score),[14],-0.255
same,glycan array binding signal (z-score),[15],0.145
same,glycan array binding signal (z-score),[16],-0.127
same,glycan array binding signal (z-score),[17],0.576
same,glycan array binding signal (z-score),Gal(b1-3)GlcNAc6S,0.52
same,glycan array binding signal (z-score),[18],-0.326
same,glycan array binding signal (z-score),[19],-0.321
same,glycan array binding signal (z-score),[20],-0.33
same,glycan array binding signal (z-score),[21],-0.33
same,glycan array binding signal (z-score),[22],-0.334
same,glycan array binding signal (z-score),[23],-0.317
same,glycan array binding signal (z-score),[24],-0.317
same,glycan array binding signal (z-score),[25],-0.338
same,glycan array binding signal (z-score),[26],0.337
same,glycan array binding signal (z-score),[27],-0.33
same,glycan array binding signal (z-score),Gal(b1-4)Gal,-0.34
same,glycan array binding signal (z-score),[28],1.28
